# Experimental data: PubChem BioAssay AID1508642 (National Center for Advancing Translational Sciences (NCATS), 2021)
# Hit rate of the full screen: of about 43,000 compounds, about 200 (0.47%) were called active. Inconclusive results (about 12%) are left out. Calls follow the shape of the dose curve; as a rule, active = well fitted cell-killing curve with a large enough effect; inconclusive = small, poorly fitted or top-dose-only effect, or effect the other way; inactive = flat fitted curve, though single readings scatter. The list shows a part of the results.
# Test: Cell viability qHTS assay in S16 Pmp22-F2sN cells; also: nearly all actives have a fitted effect of over 65% in size
# Conditions: S16 Pmp22-F2sN Schwann cells (luciferase reporters placed in the Pmp22 gene) viability, CellTiter-Glo, 24 h; series mostly up to 57.5 µM; activity change, negative = cytotoxicity: at the top concentration
# Summary of the method: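 S16 Schwann cells carrying the Pmp22-F2sN reporter, seeded in 1536-well format, were exposed to library compounds for 24 h at 37C. Viability was read as CellTiter-Glo luminescence after 15 min at room temperature.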
# % is scaled to controls: 0 for no effect and ±100 for the full control effect.
row,SMILES,"activity change, negative = cytotoxicity"
1,Cc1ccccc1OCC(=O)Nc1ccc(S(=O)(=O)Nc2ncccn2)cc1,inactive: -18.3%
2,Cc1ccc(-n2nc(C)c3c(C)c(CCC(=O)NCc4cccc(Cl)c4)c(C)nc32)cc1C,inactive: 3.8%
3,COc1ccc(CCNC(=O)C(C)n2nc(C)c3sc4ccccc4c3c2=O)cc1OC (stereo not given),inactive: 4.73%
4,CCOc1ccc(C2C(C(=O)Nc3ccc(C)cc3C)=C(C)Nc3c(C(=O)Nc4ccc(C)cc4)cnn32)cc1OC (stereo not given),inactive: -5.06%
5,CCC12CN3CC(C)(CN(C1)C3c1c(C)[nH]c3ccccc13)C2=O (stereo not given),inactive: 3.12%
6,COc1ccc(-c2nc(C)c(CCNC(=O)c3cccc(C)c3)s2)cc1OC,inactive: 14%
7,COc1ccc(C2NC(=O)N(C)C3=C2C(=O)N(c2ccccc2)C3)cc1 (stereo not given),inactive: -3.32%
8,COc1ccc(C(=O)Oc2c(Sc3ccc(C)cc3)c(C)nn2C(C)(C)C)c(OC)c1,inactive: -27.9%
9,COCCNC(=O)C(=O)Nc1ccc2nc3n(c(=O)c2c1)CCCCC3,inactive: -2.29%
10,C=Cc1ccc(Cn2c(C(=O)O)c(CNCc3cc(OC)ccc3OC)c3ccc(C)cc32)cc1,inactive: -27.6%
11,Cc1c(C(=O)N2CCOCC2)oc2c1-c1nn(CC(=O)NCc3ccccc3)cc1CC2,inactive: 1.49%
12,CSc1ccc(Nc2nn(-c3ccc(OC(F)(F)F)cc3)nc2C(C)=O)cc1,inactive: -2.96%
13,Cn1c(=O)n(C)c2cc(CNCc3ccc(C(=O)O)cc3)ccc21,inactive: 6.73%
14,COC(=O)C1=C(c2ccccc2)c2ccccc2S(=O)(=O)N1CC(=O)Nc1cc(C)ccc1C,inactive: 4.8%
15,Cc1ccc(CN2C(=O)C3(SCC(=O)N3c3ccc(C)c(C)c3)c3ccccc32)cc1 (stereo not given),inactive: -0.76%
16,CCOC(=O)c1cccc(NC(=O)CCc2c(C)nc3c4cccnc4nn3c2C)c1,inactive: 0.293%
17,CCOC(=O)Cn1nc(N2CCN(c3ccc(F)cc3)CC2)ccc1=O,inactive: 2.64%
18,Cc1cccc(N2CCN(c3c(CN4CCCC4)c(=O)oc4ccccc34)CC2)c1C,inactive: -1.53%
19,Cc1ccc2c(c1)N(CC(=O)NCc1cccc(Cl)c1)C(=O)c1cccnc1O2,inactive: 8.73%
20,COc1ccccc1Cn1c(CNS(=O)(=O)c2c(C)cc(C)cc2C)nc2cccnc21,inactive: -4.51%

row,SMILES,"activity change, negative = cytotoxicity"
1,CCOCCn1ccc2c(OCC(=O)Nc3cc(C(F)(F)F)ccc3Cl)cccc2c1=O,inactive: 1.88%
2,COc1ccc(NC(=O)CCS(=O)(=O)c2cc(Br)cc3c2N(C(C)=O)CC3)c(OC)c1,inactive: -4.91%
3,CCOc1ccccc1NC(=O)c1ccc2oc(=O)c(S(=O)(=O)c3ccc(F)cc3)cc2c1,inactive: -11.9%
4,CN(C(=O)CSc1nc2ccc(NC(=O)c3ccc(F)cc3)cc2s1)c1ccccc1,inactive: -25.2%
5,Cc1cccc(N2CCN(C(=O)Cn3nc(C)c4sc5ccccc5c4c3=O)CC2C)c1 (stereo not given),inactive: 7.1%
6,CCn1cc(C(=O)N(C)Cc2ccccc2)c(=O)c2cc(S(=O)(=O)N3CCCCC3)ccc21,inactive: 12.6%
7,CCc1ccc(NC(=O)CN2C(=O)C(=O)c3ccccc32)cc1,inactive: -7.2%
8,O=C(Nc1cccc(Cl)c1)N1Cc2ccccc2Oc2ncccc21,inactive: 2.88%
9,COc1ccc(S(=O)(=O)Nc2ccc(O)c(Sc3nc4ccccc4s3)c2)cc1,inactive: -18.7%
10,CCCC(=O)NC1CC(=O)N(c2ccc3c(c2)OCCO3)C1 (stereo not given),inactive: -8.01%
11,O=C(Nc1cccc(C(=O)OCc2cc(=O)n3nc(C4CC4)sc3n2)c1)c1ccc(F)cc1,inactive: -3.26%
12,CC(=O)c1ccc(S(=O)(=O)N2CCC(Oc3ccc(-n4cnnn4)cc3)CC2)cc1,inactive: 13.5%
13,COc1ccccc1C1C(C(N)=O)=C(C)Nc2nc(SCc3ccccc3F)nn21 (stereo not given),inactive: 5.66%
14,Cc1c(C(=O)N(C)C)sc2c1c(=O)n(-c1ccc(Cl)c(Cl)c1)c(=O)n2Cc1ccc(F)cc1,inactive: -8.51%
15,CC1CCCCN1Cc1nc2c(c(=O)n(C)c(=O)n2C)n1Cc1ccc(Br)cc1 (stereo not given),inactive: -0.677%
16,COc1ccc(NC(=O)c2c(-c3ccc(C)cc3)nnc3ccccc23)cc1OC,inactive: -4.08%
17,Cc1ccc2c(Sc3ccc(Cl)cc3)c(C(=O)N3CCCCC3)[nH]c2c1,inactive: 1.45%
18,COc1cccc(NC(=O)CSc2cc(C)c3ccccc3n2)c1,inactive: -31.5%
19,COc1ccccc1-c1nc(CNC(=O)NC2CCCCC2)c(C)o1,inactive: -3.62%
20,Cc1ccc(NC(=O)CCn2nc(C)c3c(C)n(-c4ccccc4)nc3c2=O)cc1Cl,inactive: 0.46%

row,SMILES,"activity change, negative = cytotoxicity"
1,O=C(Cn1ncc2ccsc2c1=O)N1CCN(c2ccc(Cl)cc2)CC1,inactive: 1.66%
2,CC(C)c1ccc(NC(=O)c2cn(C3CCCC3)c(=O)c3c2c2ccccc2n3C)cc1,inactive: -15.2%
3,COCCn1c(C)cc(O)c(C(c2ccccc2)N2CCN(c3ccccc3F)CC2)c1=O (stereo not given),inactive: -1.2%
4,O=C(CSc1cn(CCNC(=O)c2ccccc2F)c2ccccc12)Nc1ccc2c(c1)OCCO2,inactive: 13.8%
5,CC(Nc1ccc(-c2nc(-c3cccnc3)no2)cc1[N+](=O)[O-])c1ccccc1 (stereo not given),inactive: 18.2%
6,CCS(=O)(=O)c1ccc(C(=O)N2CCN(c3nc4c(OC)ccc(C)c4s3)CC2)cc1,inactive: -24.4%
7,CCOC(=O)N1CCc2c(sc(NCc3cc(OC)ccc3OC)c2C(=O)Nc2cc(OC)ccc2OC)C1,inactive: -16.6%
8,O=C(CSc1nc2c([nH]c3ccccc32)c(=O)n1-c1ccccc1)Nc1cccc(C(F)(F)F)c1,inactive: -8.42%
9,Cc1ccc(N(C)C(=O)Cn2ncc3c([nH]c4ccccc43)c2=O)cc1C,inactive: -0.31%
10,COc1ccc(NC(=O)CCc2c(C)nn(-c3ccc(N4CCCC4)nn3)c2C)cc1Cl,inactive: -20.7%
11,COc1ccc(N2CCN(C(=O)Cn3cnc4sc(C)c(S(=O)(=O)N5CCCCC5)c4c3=O)CC2)cc1,inactive: 2.78%
12,Cc1ccc(Cn2c(=O)n(CCc3ccccc3)c(=O)c3sc4ccccc4c32)cc1,inactive: 13.6%
13,Cc1ccc(NC(=O)CCn2cccn2)c(C)c1,inactive: 4.41%
14,COC(=O)c1cc(-c2ccc(Cl)cc2)c2c(=O)[nH]c(=O)n(C)c2n1,inactive: 19.2%
15,CCOCCCNC(=O)C1CCN(c2nc3ccc(C)cc3[nH]2)CC1,inactive: 4%
16,Cc1ccc(Nc2c(-c3cccnc3)nc3ccc(C)cn23)cc1,inactive: -7.66%
17,CCc1nn(CC(=O)N2CCN(c3cccc(C)c3)C(C)C2)c(=O)c2cc3sccc3n12 (stereo not given),inactive: 2.39%
18,CCOCCCNC(=O)C(c1ccc(C)cc1)N(Cc1ccc2c(c1)OCO2)C(=O)c1ccccc1O (stereo not given),inactive: -16.4%
19,Cc1ccc(NC(=O)n2ncc3c(C)cccc32)c(C)c1,inactive: 1.25%
20,O=C(CSc1nnc2scc(-c3ccc(Cl)cc3)n12)Nc1ccc(F)cc1,inactive: -4.29%
